Target: T1, GFP-tagged PP2A regulatory subunit B55α (UniProt P63151 1-447)
T1 sequence: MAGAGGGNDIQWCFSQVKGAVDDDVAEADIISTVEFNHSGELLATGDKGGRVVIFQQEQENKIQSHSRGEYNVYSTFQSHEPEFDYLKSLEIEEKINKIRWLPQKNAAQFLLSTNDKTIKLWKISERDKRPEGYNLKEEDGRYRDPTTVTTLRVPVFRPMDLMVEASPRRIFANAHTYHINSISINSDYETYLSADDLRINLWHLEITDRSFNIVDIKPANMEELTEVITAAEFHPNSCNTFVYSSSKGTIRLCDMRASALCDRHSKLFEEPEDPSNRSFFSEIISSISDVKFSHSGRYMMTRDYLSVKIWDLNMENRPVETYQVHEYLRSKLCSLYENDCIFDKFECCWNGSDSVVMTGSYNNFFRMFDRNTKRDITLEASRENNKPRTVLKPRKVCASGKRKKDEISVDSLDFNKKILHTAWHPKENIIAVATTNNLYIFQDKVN
Test: co-IP

decrease of binding relative to WT Aα: 50%
B1: HA-tagged Aα variant p.Met180Lys (natural protein)
chain: not shown
